# Results as given in PubChem BioAssay AID588342 (National Center for Advancing Translational Sciences (NCATS), 2011).
# In all, about 360,000 compounds went through this assay and about 25,000 (6.9%) were called active. Inconclusive results, whose numbers are uncertain, are shown with a selection of clear calls. Calls come from the whole dose curve; as a rule, active = well fitted inhibition curve with a large enough effect; inconclusive = small, poorly fitted or top-dose-only effect; inactive = flat fitted curve, though single readings scatter. Where the call is inconclusive, the potency comes from a doubtful curve fit.
# Molecular target: Luciferin 4-monooxygenase (Photinus pyralis) (UniProt P08659)
# Chain of UniProt P08659 (P08659 whole entry, looked up): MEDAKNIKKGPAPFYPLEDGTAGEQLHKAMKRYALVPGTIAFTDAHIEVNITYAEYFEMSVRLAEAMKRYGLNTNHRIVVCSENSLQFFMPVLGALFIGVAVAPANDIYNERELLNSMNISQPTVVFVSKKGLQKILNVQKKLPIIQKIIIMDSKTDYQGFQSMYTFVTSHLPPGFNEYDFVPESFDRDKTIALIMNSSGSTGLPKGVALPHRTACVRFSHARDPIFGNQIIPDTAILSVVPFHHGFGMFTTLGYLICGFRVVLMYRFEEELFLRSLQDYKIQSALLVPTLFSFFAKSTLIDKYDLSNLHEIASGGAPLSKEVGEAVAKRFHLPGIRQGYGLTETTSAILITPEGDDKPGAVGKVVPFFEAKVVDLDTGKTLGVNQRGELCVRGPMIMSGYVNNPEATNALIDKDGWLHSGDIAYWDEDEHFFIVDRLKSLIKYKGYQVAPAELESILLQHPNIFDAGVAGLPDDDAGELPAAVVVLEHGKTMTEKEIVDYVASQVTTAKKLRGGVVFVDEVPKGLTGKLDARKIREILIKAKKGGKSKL
# Assay: qHTS profiling assay for firefly luciferase inhibitor/activator using purifed enzyme and Km concentrations of substrates (counterscreen for miR-21 project); note: nearly all actives have a fitted effect of over 55% in size
# Settings: purified FLuc, luminescence inhibition; series mostly up to 57.5 µM
# Method in brief: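 Biochemical qHTS of compounds, final roughly 60 µM downward over six points, against 10 nM purified firefly luciferase using Km concentrations of substrates (10 uM D-luciferin, 10 uM ATP) in Tris acetate pH 7.5 buffer; luminescence output.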
# Potency is the fitted concentration of half-maximal effect; tags give direction and shape of the fitted curve.
row,Compound,Potency
1,Cc1cc(C(=O)N/N=C/c2ccc(-c3ccccc3Cl)o2)n[nH]1,"inconclusive: 8.49 µM [inhibitor, partial curve, poor fit]"
2,O=C(Nc1cccc(-c2nc3ccccc3o2)c1)C(F)(F)F,"inconclusive: 9.53 µM [inhibitor, partial curve, poor fit]"
3,CC(C)c1onc(C(=O)Nc2sc3c(c2C#N)CCC3)c1[N+](=O)[O-],"inconclusive: 21.3 µM [inhibitor, partial curve]"
4,Brc1ccc2nc(CSc3ncn[nH]3)cn2c1,"inconclusive: 21.3 µM [inhibitor, partial curve]"
5,Cc1sc2nc(COC(=O)c3c(F)cccc3F)[nH]c(=O)c2c1C,"inconclusive: 16.9 µM [inhibitor, partial curve]"
6,O=C(NCCC1CCCC1)c1cccs1,"inconclusive: 21.3 µM [inhibitor, single point]"
7,CC12CCC(C(=O)N3CCCCCC3)(OC1=O)C2(C)C (centres undefined),inactive
8,O=C(Nc1cc(Sc2ccccn2)cc([N+](=O)[O-])c1)c1ccc(Cl)cc1,"inconclusive: 23.9 µM [inhibitor, partial curve, poor fit]"
9,COc1ccc(Cl)cc1NC(=O)Cn1c(=O)c(-c2ccccc2NC(C)=O)nc2ccccc21,inactive
10,COc1ccc(N2CCN(C(c3ccccc3F)c3sc4nc(-c5ccco5)nn4c3O)CC2)cc1 (centres undefined),"inconclusive: 23.9 µM [inhibitor, partial curve, poor fit]"
11,CSc1cccc(NC(=S)N2CCC(c3ccccc3)C2)c1 (centres undefined),active: 15.1 µM
12,Cc1ccc(NC(=O)CN2C(=O)NC(Cc3ccccc3)C2=O)cc1Cl (centres undefined),inactive
13,CCOC(=O)CSc1nc(-c2ccccc2)nc2ccc(C)cc12,"inconclusive: 37.9 µM [inhibitor, partial curve, poor fit]"
14,CN(C)S(=O)(=O)c1ccc(C(=O)NCCOc2ccc(F)cc2)cc1,"inconclusive: 30.1 µM [inhibitor, single point]"
15,Cc1cccc(NC(=O)CSc2nnc(-c3ccco3)c(-c3ccco3)n2)c1C,"inconclusive: 23.9 µM [inhibitor, partial curve, poor fit]"
16,Cc1ccc(C(C(=O)NC2CCCCC2)N(Cc2ccco2)C(=O)C2COc3ccccc3O2)o1 (centres undefined),inactive
17,Cc1cc(C)c(OCC(=O)Nc2ccc(S(=O)(=O)N3CCCC3)cc2)c(C)c1,inactive
18,O=C(NNC(=O)c1ccccc1Br)c1ccc(Cl)c(Cl)c1,"inconclusive: 30.1 µM [inhibitor, partial curve, poor fit]"
19,Cc1ncc(CO)c(/C=N/N=C/c2ccccc2O)c1O,active: 2.39 µM
20,COc1ccc2nc(-c3ccccc3)cc(C(=O)OCC(=O)N3CC(C)OC(C)C3)c2c1 (centres undefined),active: 19 µM
21,Cc1nn(-c2ccccc2)c2c1C(c1ccc(Br)s1)C(C#N)=C(N)O2 (centres undefined),"inconclusive: 15.1 µM [inhibitor, partial curve]"
22,COc1cccc(CN(C)C(=O)CSc2nc3ccccc3[nH]2)c1OC,"inconclusive: 26.9 µM [inhibitor, partial curve, poor fit]"
23,NC(=O)Cc1ccc(C(=O)c2ccc(Cl)cc2Cl)s1,"inconclusive: 33.8 µM [inhibitor, partial curve, poor fit]"

row,Compound,Potency
1,COc1cccc(NC(=O)CSc2nnc(-c3ccco3)c(-c3ccco3)n2)c1,"inconclusive: 19 µM [inhibitor, partial curve, poor fit]"
2,COC(=O)c1cc(=O)nc2sc(-c3ccc(F)cc3)nn12,"inconclusive: 37.9 µM [inhibitor, partial curve, poor fit]"
3,CSc1ccccc1NC(=O)c1csc(C)c1,"inconclusive: 26.9 µM [inhibitor, partial curve, poor fit]"
4,CC(=O)Nc1ccc2nc(CN3CCC(CO)(CCc4ccccc4)CC3)ccc2c1,inactive
5,Cc1cc(C)c2nc(N3CCCC(C(=O)N4CCC(C(N)=O)CC4)C3)sc2c1 (centres undefined),"inconclusive: 37.9 µM [inhibitor, single point]"
6,O=C(CCc1nnc(C2CCCCC2)o1)N1CCN(c2ccccc2F)CC1,active: 12 µM
7,CCCCN(CC)C(=O)c1c[nH]c2ccc(S(=O)(=O)Nc3cccc(OC)c3)cc2c1=O,"inconclusive: 19 µM [inhibitor, partial curve, poor fit]"
8,CN1CCN(CC(=O)O)CC1,inactive
9,CN(C)c1ccc(/C=C(/C#N)C(=O)NCc2ccccc2)o1,"inconclusive: 8.49 µM [inhibitor, partial curve, poor fit]"
10,Cc1ccc2oc(-c3cccc(NC(=O)c4cccc5c(Br)cccc45)c3)nc2c1,inactive
11,O=C(Nc1ccc(Cl)cc1C(=O)NCC1CCCO1)c1ccc(Cl)cc1Cl (centres undefined),"inconclusive: 21.3 µM [inhibitor, partial curve, poor fit]"
12,CCN1CCN(c2cc(C)c3cc(NC(=O)CCC(=O)N4CCN(c5ccccc5)CC4)ccc3n2)CC1,"inconclusive: 21.3 µM [inhibitor, partial curve, poor fit]"
13,O=C(CCCn1c(=O)c2cccn2c2ccccc21)Nc1cccc(Cl)c1,active: 12 µM
14,COc1ccc(-c2cc(C)no2)cc1S(=O)(=O)N1CCN(c2ccc(C(C)=O)cc2)CC1,inactive
15,COc1cc(/C=C(\C#N)c2nc3ccccc3n2C)cc(OC)c1O,"inconclusive: 26.9 µM [inhibitor, partial curve]"
16,CCc1c(C(=O)Nc2ccc(C)c(C)c2)[nH]c(C)c1C(C)=O,active: 15.1 µM
17,CCOc1ccccc1CNC(=O)CCCn1c(=O)c2cccn2c2cccnc21,inactive
18,O=C(CCn1c(=S)oc2ccccc21)Nc1ccc2c(c1)OCCO2,"inconclusive: 37.9 µM [inhibitor, single point]"
19,O=C(Cn1cnc(S(=O)(=O)N2CCOCC2)c1)Nc1ccc(OC(F)(F)F)cc1,inactive
20,COc1ccc(-c2cccc(NS(=O)(=O)c3cccs3)c2)nn1,"inconclusive: 21.3 µM [inhibitor, partial curve, poor fit]"
21,O=C(NCCCN1CCCC1=O)C(=O)NCC1OCCN1S(=O)(=O)c1ccc(Br)cc1 (centres undefined),"inconclusive: 37.9 µM [inhibitor, partial curve, poor fit]"
22,Cc1cnc(NC(=O)c2sc(Nc3ccccc3)nc2N)o1,"inconclusive: 7.57 µM [inhibitor, partial curve]"
23,CCCOc1ccc(/C=C/C(=O)Nc2sc3c(c2C(=O)OCC)CCC(C)C3)cc1OC (centres undefined),inactive

row,Compound,Potency
1,CC(=O)c1cc(-c2ccc(F)cc2)n(CC(=O)NC2CCCCCC2)c1C,inactive
2,O=C(NCCNC(=O)c1cc(OCC(F)(F)F)ccc1OCC(F)(F)F)Nc1ccc(Cl)cc1,"inconclusive: 16.9 µM [inhibitor, partial curve]"
3,COc1ccccc1-n1cnc2cc(NCc3ccccn3)ccc21,active: 15.1 µM
4,N#Cc1c(NC(=O)CSCC(=O)O)sc2c1CCCC2,"inconclusive: 37.9 µM [inhibitor, partial curve, poor fit]"
5,Cn1c2ccc(Cl)cc2c2nc3ccccc3nc21,"inconclusive: 9.53 µM [inhibitor, partial curve]"
6,CCCOc1ccc(-c2cccc(NS(=O)(=O)c3cccs3)c2)nn1,"inconclusive: 16.9 µM [inhibitor, partial curve]"
7,COc1ccc(-c2onc(C)c2C)cc1S(=O)(=O)Nc1ccc(OC(F)(F)F)cc1,"inconclusive: 16.9 µM [inhibitor, partial curve, poor fit]"
8,O=C(COC(=O)c1cccs1)NCC1CCCCC1,"inconclusive: 30.1 µM [inhibitor, partial curve, poor fit]"
9,CCSC1(SCC)N=C(N)C2(C#N)C(c3ccccc3)NC3=C(CCC3)C12C#N (centres undefined),inactive
10,Cc1cccnc1NC(=O)CNC(=O)c1sc2ccccc2c1Cl,"inconclusive: 30.1 µM [inhibitor, partial curve, poor fit]"
11,CCOC(=O)c1cccc(NC(=O)c2cc(S(=O)(=O)N3CCCC3)cn2C)c1,inactive
12,Cc1ccccc1C(=O)c1cccn1CC(=O)NCc1ccccc1Cl,"inconclusive: 8.49 µM [inhibitor, partial curve]"
13,CC(Sc1ncnc2sc(-c3ccccc3)cc12)C(=O)NCC1CCCO1 (centres undefined),"inconclusive: 37.9 µM [inhibitor, partial curve, poor fit]"
14,CC1(C(=O)OCC(=O)NNC(=O)COc2ccc(Cl)cc2)CC1(Cl)Cl (centres undefined),inactive
15,C/C(N)=C(/C#N)C(=O)COC(=O)C1CCC(C(C)(C)C)CC1 (centres undefined),"inconclusive: 21.3 µM [inhibitor, single point]"
16,Cc1ccnn1CC(=O)N/N=C/c1c[nH]c2ccccc12,inactive
17,O=C1c2ccccc2-c2onc3c(N4CCN(CCO)CC4)cc(N4CCN(C(=O)c5ccco5)CC4)c1c23,"inconclusive: 21.3 µM [inhibitor, single point]"
18,COc1ccc(-c2cn3nc(N4CCC(C(=O)NCc5ccc(F)cc5)CC4)sc3n2)cc1,inactive
19,Cc1ccc(-n2c(C)cc(C(=O)NS(=O)(=O)c3ccc(C)cc3)c2C)cc1,inactive
20,COc1ccccc1Nc1nnc(SCC(=O)N2CCCC2)s1,"inconclusive: 21.3 µM [inhibitor, partial curve, poor fit]"
21,COc1cc(C(=O)Nc2nccs2)c(Br)c(OC)c1OC,inactive
22,Cc1cc(NC(=O)CCC2CCCCC2)no1,"inconclusive: 15.1 µM [inhibitor, partial curve]"
23,Fc1cccc(Cl)c1Cn1nnc(-c2ccc3c(c2)OCO3)n1,active: 12 µM
